Results as given in EPA's CvTdb concentration-time database.
This continues a long series; more values of the same kind are listed elsewhere.

Tests used:
Rat [1] = assay: concentration in plasma after dosing; details: 8 min; dosed: 2-Methyltetrahydrofuran; 10 mg/kg; oral; Female; F344
Rat [2] = assay: concentration in plasma after dosing; details: 0.25 h; dosed: 2-Methyltetrahydrofuran; 10 mg/kg; iv; Female; F344
Rat [3] = assay: concentration in brain after dosing; details: 3 h; dosed: 2-Methyltetrahydrofuran; 10 mg/kg; iv; Male; F344
Rat [4] = assay: concentration in brain after dosing; details: 10 min; dosed: 2-Methyltetrahydrofuran; 10 mg/kg; oral; Male; F344
Rat [5] = assay: concentration in plasma after dosing; details: 1 h; dosed: 2-Methyltetrahydrofuran; 10 mg/kg; oral; Female; F344
Rat [6] = assay: concentration in brain after dosing; details: 2 min; dosed: 2-Methyltetrahydrofuran; 10 mg/kg; iv; Male; F344
Rat [7] = assay: concentration in brain after dosing; details: 2 h; dosed: 2-Methyltetrahydrofuran; 10 mg/kg; iv; Female; F344
Rat [8] = assay: concentration in brain after dosing; details: 0.25 h; dosed: 2-Methyltetrahydrofuran; 10 mg/kg; iv; Male; F344
Rat [9] = assay: concentration in plasma after dosing; details: 0.75 h; dosed: 2-Methyltetrahydrofuran; 400 mg/kg; oral; Male; F344
Rat [10] = assay: concentration in brain after dosing; details: 1.5 h; dosed: 2-Methyltetrahydrofuran; 100 mg/kg; oral; Female; Harlan Sprague Dawley
Rat [11] = assay: concentration in plasma after dosing; details: 0.5 h; dosed: 2-Methyltetrahydrofuran; 10 mg/kg; iv; Female; F344
Rat [12] = assay: concentration in brain after dosing; details: 5 min; dosed: 2-Methyltetrahydrofuran; 10 mg/kg; iv; Female; F344
Rat [13] = assay: concentration in plasma after dosing; details: 4 min; dosed: 2-Methyltetrahydrofuran; 30 mg/kg; oral; Female; F344
Rat [14] = assay: concentration in brain after dosing; details: 5 min; dosed: 2-Methyltetrahydrofuran; 10 mg/kg; iv; Male; F344
Rat [15] = assay: concentration in brain after dosing; details: 20 min; dosed: 2-Methyltetrahydrofuran; 30 mg/kg; oral; Male; F344
Rat [16] = assay: concentration in plasma after dosing; details: 1.5 h; dosed: 2-Methyltetrahydrofuran; 100 mg/kg; oral; Female; Harlan Sprague Dawley
Rat [17] = assay: concentration in brain after dosing; details: 0.75 h; dosed: 2-Methyltetrahydrofuran; 30 mg/kg; oral; Male; F344
Rat [18] = assay: concentration in brain after dosing; details: 0.5 h; dosed: 2-Methyltetrahydrofuran; 10 mg/kg; oral; Female; F344
Rat [19] = assay: concentration in plasma after dosing; details: 5 min; dosed: Bromochloroacetic acid; 10 mg/kg; iv; Male; F344
Rat [20] = assay: concentration in plasma after dosing; details: 10 min; dosed: Bromochloroacetic acid; 10 mg/kg; iv; Male; F344
Rat [21] = assay: concentration in plasma after dosing; details: dosed: Bromochloroacetic acid, 100 mg/kg, oral, Female, F344
Rat [22] = assay: concentration in plasma after dosing; details: 0.5 h; dosed: Fluorotelomer alcohol 8+2; 80 mg/kg; oral; Female; Harlan Sprague Dawley
Rat [23] = assay: concentration in plasma after dosing; details: 6 h; dosed: Fluorotelomer alcohol 8+2; 24 mg/kg; oral; Male; Harlan Sprague Dawley
Rat [24] = assay: concentration in plasma after dosing; details: dosed: Formamide, 600 mg/kg, oral, Male, Harlan Sprague Dawley
Rat [25] = assay: concentration in plasma after dosing; details: dosed: Formamide, 600 mg/kg, oral, Male, Harlan Sprague Dawley; remark: listed apart in the source
Rat [26] = assay: concentration in plasma after dosing; details: dosed: Formamide, 600 mg/kg, oral, Male, Harlan Sprague Dawley; remark: listed apart in the source
Rat [27] = assay: concentration in plasma after dosing; details: dosed: Formamide, 600 mg/kg, oral, Male, Harlan Sprague Dawley; remark: listed apart in the source
Rat [28] = assay: concentration in plasma after dosing; details: dosed: Formamide, 90 mg/kg, iv, Male, Harlan Sprague Dawley
Rat [29] = assay: concentration in plasma after dosing; details: dosed: Formamide, 600 mg/kg, oral, Female, Harlan Sprague Dawley
Rat [30] = assay: concentration in plasma after dosing; details: dosed: Formamide, 90 mg/kg, iv, Male, Harlan Sprague Dawley; remark: listed apart in the source
Rat [31] = assay: concentration in plasma after dosing; details: dosed: Formamide, 36 mg/kg, oral, Female, Harlan Sprague Dawley
Rat [32] = assay: concentration in plasma after dosing; details: dosed: Formamide, 90 mg/kg, iv, Male, Harlan Sprague Dawley; remark: listed apart in the source
Rat [33] = assay: concentration in plasma after dosing; details: 9 h; dosed: Pyridine; 200 mg/kg; oral; Female; Harlan Sprague Dawley
Rat [34] = assay: concentration in plasma after dosing; details: 2 min; dosed: Pyridine; 50 mg/kg; oral; Male; Harlan Sprague Dawley
Rat [35] = assay: concentration in plasma after dosing; details: 10 min; dosed: Pyridine; 200 mg/kg; oral; Female; F344
Rat [36] = assay: concentration in plasma after dosing; details: dosed: Pyridine, 5 mg/kg, iv, Female, F344
Rat [37] = assay: concentration in plasma after dosing; details: 20 min; dosed: Pyridine; 50 mg/kg; oral; Male; Harlan Sprague Dawley

CC1CCCO1 (stereo not drawn) [2-Methyltetrahydrofuran]
Details | concentration in brain [µg/g] | concentration in plasma [ng/mL]
Rat [1] | – | 3000
Rat [2] | – | 8130
Rat [3] | 0.0682 | –
Rat [4] | 3.09 | –
Rat [5] | – | 1390
Rat [6] | 8.86 | –
Rat [7] | 0.109 | –
Rat [8] | 5.66 | –
Rat [9] | – | 214000
Rat [10] | 59.4 | –
Rat [11] | – | 4130
Rat [12] | 7.24 | –
Rat [13] | – | 8790
Rat [14] | 6.02 | –
Rat [15] | 14.7 | –
Rat [16] | – | 40300
Rat [17] | 10.8 | –
Rat [18] | 2.67 | –

O=C(O)C(Cl)Br (stereo not drawn) [Bromochloroacetic acid]
Details | concentration in plasma [ng/mL]
Rat [19] | 13700
Rat [20] | 3650

Rat [21]
Details | concentration in plasma [ng/mL]
1.5 h | 32500
2 min | 2710

OCCC(F)(F)C(F)(F)C(F)(F)C(F)(F)C(F)(F)C(F)(F)C(F)(F)C(F)(F)F [Fluorotelomer alcohol 8+2]
Details | concentration in plasma [ng/mL]
Rat [22] | 682
Rat [23] | 36.1

NC=O [Formamide]
Details | concentration in plasma [ng/mL]
Rat [24], 0.25 h | 362000
Rat [24], 5 h | 737000
Rat [25], 10 min | 400000
Rat [25], 20 h | 457000
Rat [26], 2 h | 903000
Rat [26], 5 min | 94400
Rat [27], 1.5 h | 692000
Rat [27], 30 h | 332000
Rat [28], 2 h | 145000
Rat [28], 96 h | 2700
Rat [29], 0.5 h | 693000
Rat [29], 48 h | 88300
Rat [30], 0.25 h | 198000
Rat [30], 24 h | 20500
Rat [31], 1.5 h | 48100
Rat [31], 30 h | 6900
Rat [32], 5 h | 108000
Rat [32], 72 h | 3300

c1ccncc1 [Pyridine]
Details | concentration in plasma [ng/mL]
Rat [33] | 75400
Rat [34] | 393
Rat [35] | 90200
Rat [37] | 20600

Rat [36]
Details | concentration in plasma [ng/mL]
0.5 h | 3520
8 h | 1000
